# Laboratory results from article PMC12040169 (PLOS Biology, 2025).
# Some of the results follow.
# System: T1, C. trachomatis L2/434/Bu expressing GFP (CTL2-GFP)
# T1 construct: L2/434/Bu GFP intracellular growth in HeLa cells
# Design: species or system HeLa; C. trachomatis total inclusion area by high-content imaging, normalised to DMSO
# Details: total inclusion area; 28.5 h, 10 µM; inhibitor
# How it was run: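 Bulk GFP and resorufin signals were read first. Wells were then fixed, stained with Hoechst and imaged to detect GFP inclusions and host nuclei. MICs followed the previously described calculation.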
row,Structure (SMILES),% of control remaining
1,O=C(c1cccc(O)c1)N1CCN(Cc2cn3ccsc3n2)CC1 [CBK305275],62.987
2,COc1ccc2[nH]cc(CC(=O)Nc3cc(C)nc4ccccc34)c2c1 [CBK122732],86.8493
3,Cc1[nH]nc2c1C(c1ccc(Cl)cc1)N(CCc1c[nH]c3ccccc13)C2=O (stereo not shown) [CBK287919],104.713
4,COc1cc(CNCc2cccnc2)ccc1OCc1cccs1 [CBK270082C],80.8003
5,CSc1nsc(SCC(=O)Nc2ccccc2C#N)n1 [CBK269826],86.8303
6,Cc1c(-c2ccccc2)n[nH]c1C(=O)NCCCc1ccccn1 [CBK282445],116.48
7,Cc1ccc(N2C(=O)c3ccc(S(=O)(=O)c4cccc(C(=O)O)c4)cc3C2=O)c(C)c1 [CBK262783],105.778
8,O=C(Nc1ccccc1Cl)C1CCCN1S(=O)(=O)c1ccc(F)cc1 (stereo not shown) [CBK110161],107.694
9,N#C/C(=C/c1ccc(Sc2nc3ccccc3[nH]2)o1)c1ccc(C(=O)O)cc1 [CBK269141],79.3812
10,O=C1NCC2(CCN(Cc3ccccc3)CC2)Oc2ccccc21 [CBK285323],76.0938
11,Cc1cccc(OCCn2cncc2-c2cnn(C)c2)c1C [CBK281497],81.7459
12,CCOC(=O)c1cnn2c(O)cc(CN3CCCc4ccccc43)nc12 [CBK305694],123.537
13,O=c1c([N+](=O)[O-])c[nH]c2nc(-c3ccncc3)nn12 [CBK288531N],88.3565
14,O=C(O)c1cccc(S(=O)(=O)N(CCO)CCO)c1 [CBK263221],95.8625
15,Cc1cc(C(=O)N2CCN(Cc3ccc(F)cc3Cl)CC2)no1 [CBK268126],111.553
16,CC1CCCCC1NC(=O)c1ncoc1-c1cccs1 (stereo not shown) [CBK283973],75.3441
17,Cn1c(=O)c2[nH]c(N3CCCNCC3)nc2n(C)c1=O [CBK270030],103.645
18,CC1CCN(S(=O)(=O)c2ccc(C(=O)NC(C(=O)O)C(C)O)cc2)CC1 (stereo not shown) [CBK297151],79.4292
19,CC(NC(=O)Cc1cccc(F)c1)c1nc2cccnc2n1C(C)C (stereo not shown) [CBK283831],97.46
20,CC(NC(=O)OC(C)(C)C)c1nnc(SCC(=O)N(C)C)o1 (stereo not shown) [CBK269932],106.66

row,Structure (SMILES),% of control remaining
1,O=c1cc(N2CCN(CC3CCOC3)CC2)c(-c2ccccc2)n[nH]1 (stereo not shown) [CBK306957],53.316
2,O=C(O)/C=C/c1cccc(-c2cn3ccnc3c(N3CCN(c4ccncc4)CC3)n2)c1 [CBK066326],113.003
3,O=[N+]([O-])c1ccc2c(ccn2C2CC(O)C(CO)O2)c1 (stereo not shown) [CBK201163],104.217
4,COC(=O)COc1nccnc1-c1ccc(SC)cc1 [CBK106806],85.633
5,Cc1cc(N2CCN(C(=O)Cc3cccs3)CC2)nc(C(C)C)n1 [CBK305562],65.4522
6,CC(C)[C@H]1CN(Cc2ccco2)CCN1C(=O)N1CCCCC1 [CBK284272],71.7124
7,COc1nccnc1NS(=O)(=O)c1ccc(Nc2c([N+](=O)[O-])cc([N+](=O)[O-])c3nonc23)cc1 [CBK261441],20.298
8,CC(C)C(=O)Nc1ccc2c(-c3ccccc3)ccnc2n1 [CBK073671],110.391
9,Nc1ncc(-c2cccc3ncccc23)nc1N1CCC[C@@H]1CO [CBK063441],120.345
10,O=C(O)C1CCCCN1S(=O)(=O)c1ccc(Br)cc1 (stereo not shown) [CBK101789],78.2873
11,O=C(Nc1cccc(Cl)c1Cl)c1cccs1 [CBK057672],44.5393
12,Cc1cc(F)c(S(N)(=O)=O)cc1NC(=O)c1cccc(Br)c1 [CBK051488],76.0738
13,CC(C)(C)OC(=O)N1CCC(C2OCc3cc(-c4ccc(C(=O)N5CCOCC5)o4)ccc3O2)CC1 (stereo not shown) [CBK173615],81.369
14,Cc1nnc(N/N=C\c2c(Cl)cccc2Cl)[nH]c1=O [CBK027921],81.6417
15,C#CCN1CC[C@]2(c3ccc(OC)c(OC)c3)CC[C@@H](NC(=O)Nc3ccc(F)c(F)c3)C[C@H]12 [CBK056657],51.1516
16,COc1ccc2[nH]cc(CCNC(=O)c3cc(-c4cccc(NC(C)=O)c4)cnc3N(C)S(C)(=O)=O)c2c1 [CBK076599],109.766
17,O=C(CSc1oc(-c2ccco2)nc1S(=O)(=O)c1ccccc1)c1ccccc1 [CBK268424],111.592
18,CC(=O)Nc1ccc(CN(C)c2c(C)nc3ccc(C(=O)N(C)CCN(C)C)cn23)cc1 [CBK147107],105.572
19,COCc1nnc(Sc2nccnc2N2CCCC2)s1 [CBK093736],109.169
20,CC(NC(=O)N(C)Cc1ccc2ccccc2n1)c1nncn1C(C)C (stereo not shown) [CBK307197],39.0703
